Results: the supplement of paper PMC10126150
Values marked as one replicate rest on one cluster of the flow cell; about a third of the high ones do not repeat.

System: ATP
Assay: switch fluorescence ratio, 500 uM ATP over buffer (Cy3 cluster intensity, sum of 5 cycles each) (fold (ratio)); higher = stronger signal-on switching upon ATP binding; sequences stand for … in TCGTCGGCAGCGTCAGATGTGTATAAGAGACAGTTTTTTTTTTTTTTTTTTTTTTTTT…TC
Conditions: aptamer strand: ATP DNA aptamer (quencher-CACCTGGGGGAGTATTGCGGAGGAAGG + anchor), 100 nM annealed; ATP concentration: 500 uM; one replicate
In short: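 Per cluster, summed Cy3 intensity from the target cycles was divided by that from the buffer cycles to give the fluorescence ratio, then averaged per switch-domain sequence. Clusters outside 100-1000 RFU were excluded. The Cy3-labelled switching-strand clusters, on a modified Illumina MiSeq flow-cell, were annealed to 100 nM quencher-labelled ATP aptamer and imaged in selection buffer, then after 15 min with 500 uM ATP at 22 °C, for five cycles with NaOH stripping and re-annealing between them.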
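Further: ATP exposure 15 min at 22 °C before imaging.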

Row | Sequence | switch fluorescence ratio
1 | GCCTTAGAAT | 0.995
2 | GGAGTATTTG | 0.971
3 | ACTCTTGACG | 0.951
4 | TTTGAATA | 1.04
5 | AAAAACAGAT | 0.978
6 | TCTAGAATAT | 0.963
7 | GAGAATCGTA | 1
8 | TTTAGGGCGA | 1.02
9 | TCAAAGCCCC | 1.06
10 | AAAATTTCCC | 1.06
11 | CATCAGCCGG | 1.09
12 | TCTGGGGATA | 1.03
13 | AAAATTTTAC | 1.06
14 | TCTGGCAATT | 1.55
15 | TTCGGTGCTA | 0.985
16 | GGCCGAACCT | 1.25
17 | GCAGCTTGGG | 1.03
18 | AAATGGCTAG | 0.953
19 | CCCCTGCCGG | 1.01
20 | CGGACATTAT | 1.03
21 | GAGACCTCG | 1.05
22 | CTCACACGGA | 1.04
23 | TATAGGACCG | 1.03

Row | Sequence | switch fluorescence ratio
24 | ATCAACAGAA | 1.04
25 | AGCCCGCTGG | 1.07
26 | CCGATTTACT | 1.55
27 | CGGGCTTGAA | 1.01
28 | CGAAGCAGTT | 2.49
29 | CTGCCCGCTC | 1.8
30 | GGGCGTTTTA | 1.03
31 | ACCTTCGATT | 1.1
32 | AACATACACG | 1.38
33 | GACACTCA | 1.05
34 | GCTCAACTTT | 1.04
35 | CACCGCCAGC | 3.09
36 | GATCCACCCC | 1.12
37 | GTTTGTCGTA | 1.01
38 | GGACCTTGTT | 1.03
39 | AATGCCAGTT | 1.04
40 | TTTGCTGGA | 0.999
41 | GATATACAGT | 1.04
42 | GTTTATGCGG | 1.04
43 | CACATACGGG | 1.62
44 | ACTTGGATA | 1.01
45 | AACTTGGGCC | 1.01
46 | GGGTTGCCCA | 0.947

Row | Sequence | switch fluorescence ratio
47 | CAGCGACTTT | 1.05
48 | TGGTATATGT | 0.986
49 | ATACTAACGT | 1.46
50 | AATCTTCGG | 0.997
51 | AGAGTCCAGT | 0.992
52 | AGGATGTCGA | 1.01
53 | GCAGGAGGCA | 0.991
54 | TCGAGCTTGA | 1.04
55 | TAACTGTGCA | 0.967
56 | CCTGAATATA | 1.05
57 | TCGTTATGGT | 1.06
58 | CTGTGACGGG | 0.988
59 | AGACGCTCTA | 1.04
60 | CGTTAAGGTT | 0.938
61 | TGATATCTGC | 1.01
62 | GCGTAATCAG | 1.02
63 | ATTGGCACAC | 1.04
64 | CTGCGCGCCT | 1.04
65 | TTATGTGTAA | 1
66 | GACCTGAAAA | 1
67 | CGAGGCTACC | 1.22
68 | ATTATAGCCC | 0.929
69 | AGGTCATAGG | 1.02

Row | Sequence | switch fluorescence ratio
70 | ACAGTGGTGG | 1.08
71 | GCAGTACGCT | 1.18
72 | ATAACTGGAC | 1.04
73 | TATAGTAGCG | 0.997
74 | CGCATGTGGG | 1.04
75 | GGTGTTACCT | 1.05
76 | TTTCCCTG | 1.04
77 | CCGGTTTCAT | 0.978
78 | TCAGGAAAAC | 1.05
79 | GCATTTAATA | 1.11
80 | TCGGACCCCT | 1.18
81 | TTGCGGAGAA | 0.873
82 | TCCCTGGGTT | 1.01
83 | TTAAGAAAGC | 1.05
84 | AACATACTCT | 1.22
85 | TCCACCGTAA | 4.09
86 | ACTGCAGCTT | 1.06
87 | CTGGCCTATA | 1.04
88 | AAAGAGCAGC | 1.07
89 | ACTTTTGGC | 1.02
90 | GATTGCCAGC | 0.975
91 | TAATAGTAGC | 0.947
92 | AAGACTGACT | 1.14

Row | Sequence | switch fluorescence ratio
93 | AGATCAGCAG | 1.04
94 | CTATGCGAGG | 0.983
95 | TCCATGTTG | 1
96 | GCTATGAGGA | 1.02
97 | GGTGTATGGC | 1.01
98 | CGTGAAGATT | 1.01
99 | CCGGGCAGTT | 1.7
100 | TTCATTCGAG | 0.987
101 | AAAAATGAGT | 1
102 | ATTGATAGGC | 1.1
103 | TGTAAAGGGC | 1.03
104 | CATGACCGCT | 0.985
105 | ATTGTTCGAA | 1.04
106 | CACTGGATGA | 0.983
107 | GAACATGCCG | 1
108 | CCAAACCTAT | 1.04
109 | GGGTAGGACT | 0.999
110 | CCTAGTTCGT | 0.979
111 | TTCTTATTCT | 0.96
112 | TACGAGTTT | 0.976
113 | ATGTGAAT | 0.966
114 | GCTAGTTGTC | 0.861
115 | CGAACCGTGG | 1

Row | Sequence | switch fluorescence ratio
116 | TATGCCATGG | 1.03
117 | GATGGAAGCT | 1.12
118 | TTCGTACTC | 1.03
119 | ACTTTTAATT | 1.03
120 | AGAATAACGA | 1.01
121 | AGGTAAGGGA | 0.998
122 | AAGTCAGCGT | 0.978
123 | CCAGTCCAGT | 1
124 | TATTCTAAG | 0.95
125 | GAGGAAATAG | 1.33
126 | CTGTAGGTT | 0.971
127 | TTAGTACCCC | 1.1
128 | TTTCGAAGCA | 1.64
129 | CAAAAATACT | 1.26
130 | AAATTACTCC | 1.28
131 | AGCAGGCTGA | 1.03
132 | AGATGGGAAA | 0.96
133 | ACATCAGTCG | 1.1
134 | TTTACCGAAG | 1.09
135 | TTCACAGGA | 0.997
136 | CCACTGCTCG | 1.13
137 | TAGATGTGGA | 1
138 | GACAGCGACC | 1.31

Row | Sequence | switch fluorescence ratio
139 | AGTGTCTGCC | 1.04
140 | TTTCGACCCG | 1.12
141 | GTACGGATGT | 0.98
142 | TTGTAAATCC | 1.09
143 | AACACCCTT | 1.04
144 | GGCCCACCTT | 1.07
145 | TATTTTTATG | 0.963
146 | GGGCGGGA | 1.02
147 | ATTCAGGGGA | 0.968
148 | GTATCCATGG | 1.07
149 | GTGTTGGGCT | 0.993
150 | AGAATGGCTA | 0.968
151 | AGGCGAGTCA | 0.994
152 | TTCGTCTTAT | 1.04
153 | TTTTAAACCA | 1.01
154 | ACTACGGTGT | 1.14
155 | AAACCTTGTA | 1
156 | GGAGGGGGG | 0.976
157 | ATTATATTTG | 0.992
158 | TAGGAGAAAT | 1
